In PubChem BioAssay AID504706 (National Center for Advancing Translational Sciences (NCATS), 2011):
In all, about 320,000 compounds went through this assay and about 200 (0.062%) were called active. Inconclusive means that the source gave no clear call. Such entries were picked first, then a sample of the others. Calls follow the shape of the dose curve; as a rule, active = well fitted activation curve with a large enough effect; inconclusive = small, poorly fitted or top-dose-only effect; inactive = no such curve, though single readings can be large or run the other way. No potency is given beside an inconclusive call; the fits are too rough.

assay: qHTS assay for re-activators of p53 using a Luc reporter; details: H1299 p53-A138V BP100-luciferase reporter, luminescence, 24 h; series mostly up to 92.2 µM; activity change, positive = activation: at the top concentration; also: nearly all actives have a fitted effect of over 45% in size; as to activity change, positive = activation: % of control where 0% means no effect
Procedure, shortened: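 p53-null H1299 cells stably carrying temperature-sensitive p53-A138V and a BP100-luciferase reporter were pinned with compounds (4-point, 1:5 series) and held 24 hrs at 37 deg C. Luminescence was read 10 min after detection reagent.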
Potency is read from the fitted curve at half-maximal effect; tags tell the direction and shape of the fitted curve.

Compound | Potency | activity change, positive = activation
CN(C)c1cccc(C(=O)Nc2cccc(F)c2)c1 | inconclusive [activator, partial curve, poor fit] | 
Cc1ccc2nc(N(CCN3CCOCC3)C(=O)CCS(=O)(=O)c3ccccc3)sc2c1 | inconclusive [activator, full curve, poor fit] | 
c1cncc(-c2nc(-c3ccco3)cs2)c1 | inconclusive [activator, single point] | 
COc1ccc(NC(=O)NNC(=O)C(C)Oc2ccc3ccccc3c2)cc1OC (centres undefined) |  | inactive: -17.1%
Cn1cc(-c2nnnn2-c2ccc(Cl)cc2)c(C(F)(F)F)n1 |  | inactive: -2.18%
N#CC(Cc1ccccc1)(Cc1ccccc1)C(=O)NN | inconclusive [activator, partial curve, poor fit] | 
CC(C)(C)C1CCC(=NNC(=O)c2ccc(Br)o2)CC1 (centres undefined) | inconclusive [activator, full curve, poor fit] | 
COc1cccc(NC(=O)c2ccc3c(c2)N(CC(=O)N2CCCCC2)C(=O)C(C)(C)O3)c1 | inconclusive [activator, single point] | 
Cc1ccc(CNC(=O)C2CCC(=O)N(CCc3ccccc3)C2)s1 (centres undefined) |  | inactive: 25.8%
CCOC(=O)c1c(NC(=O)C2COc3ccccc3O2)sc(C(C)=O)c1C (centres undefined) | inconclusive [activator, partial curve, poor fit] | 
CCCCN1C(=O)C(=O)N(CC(=O)c2cc(C)n(C3CC3)c2C)C1=O | inconclusive [activator, partial curve, poor fit] | 
CC(=O)Nc1ccc(S(=O)(=O)N(C)CC(=O)OCC(=O)N2CCCCCC2)cc1 | inconclusive [activator, single point] | 
CCOc1ccc(NC(=O)CSC(N)=O)cc1 | inconclusive [activator, full curve, poor fit] | 
O=C1NC(c2ccccc2)=CC(c2ccccc2O)N1 (centres undefined) |  | inactive: -0.256%
COc1cc(C(=O)Nc2ccc3ccccc3c2)cc(OC)c1OC |  | inactive: 19.4%
Cc1ccc2nc3sc(C(=O)N4CCCc5ccccc54)c(N)c3cc2c1 | inconclusive [activator, partial curve, poor fit] | 
O=C(c1ccccc1)c1c2c(cc3sc4ccccc4[n+]13)-c1cccc3cccc-2c13 |  | inactive: 14.1%
Cc1cc(C)n2c(Br)c(CSc3nc4ccccc4o3)nc2n1 | inconclusive [activator, partial curve, poor fit] | 
O=C(/C=C/c1ccco1)NC(=S)Nc1ccc(O)c(-c2nc3ccccc3s2)c1 |  | inactive: 13.5%
CN1C(=O)/C(=C\c2ccco2)N=C1c1ccc(Cl)cc1Cl |  | inactive: -0.225%
COc1ccc(N2C(=O)C3C(C2=O)C2C=CC3C23CC3)c(OC)c1 (centres undefined) | inconclusive [activator, single point] | 
NC(=O)COc1ccc2cc(-c3ccccc3)c(=O)oc2c1 | inconclusive [activator, partial curve, poor fit] | 
Cc1ccccc1Cn1nnc(-c2ccc(F)cc2)n1 | inconclusive [activator, partial curve, poor fit] | 

Compound | Potency | activity change, positive = activation
Cc1ccc2c(c1)N(C(=O)CCC(=O)N1CCc3ccccc3C1)CCO2 | inconclusive [activator, single point] | 
CC(C)(C)C(=O)/C=C/Nc1ccccc1O | inconclusive [activator, partial curve, poor fit] | 
Cc1ccc(C2=C/C(=C/c3cccs3)C(=O)O2)cc1 | inconclusive [activator, full curve, poor fit] | 
C=CCSc1n[nH]c(-c2ccc(OCCCC)cc2)n1 | inconclusive [activator, partial curve, poor fit] | 
Cc1cccn2c(=O)c(/C=C(\C#N)C(=O)NC3CCS(=O)(=O)C3)c(N3CC(C)OC(C)C3)nc12 (centres undefined) |  | inactive: 0.0953%
CC(=O)Nc1nc(-c2ccc(Cl)cc2)nc(C)c1C(C)=O | inconclusive [activator, single point] | 
Cc1nc(SCc2nc3cc(Cl)c(F)cc3[nH]2)c2oc3ccccc3c2n1 |  | inactive: -4.48%
CCCC1COC(Cn2cncn2)(c2ccc(C)cc2)O1 (centres undefined) | inconclusive [activator, partial curve, poor fit] | 
CCOc1c(OC)cc(C2C(C#N)=C(N)Oc3n[nH]c(-c4ccncc4)c32)cc1OC (centres undefined) | inconclusive [activator, single point] | 
CCCOc1ncnc2c1[nH]c1ccccc12 | inconclusive [activator, partial curve, poor fit] | 
COCCn1c(C)cc(C(=O)CSc2nnc(C3CC3)n2C2CC2)c1C | inconclusive [activator, single point] | 
Cc1cc(C)c(N=Cc2c(O)c3ccccc3oc2=O)c(C)c1 |  | inactive: 16.2%
CC(C)c1ccc(NC(=O)CN2C(=O)NC(Cc3c[nH]c4ccccc34)C2=O)cc1 (centres undefined) | inconclusive [activator, single point] | 
CSc1ccccc1NC(=O)c1cc(CC(C)C)on1 | inconclusive [activator, partial curve, poor fit] | 
O=C(Nc1ccc2c(c1)OCCO2)c1cc2ccccc2o1 | inconclusive [activator, full curve, poor fit] | 
COc1ccc(NC(=S)Nc2cc(C)cc(C)n2)cc1OC | inconclusive [activator, single point] | 
Fc1cccc(NC(=S)NCc2ccccc2Cl)c1 |  | inactive: 3.21%
Cc1cccc(C(=O)Nc2ccccc2C(=O)Nc2ccc(C(=O)O)cc2)c1 | inconclusive [activator, single point] | 
CCn1cc(C(=O)N2CCCC2)c(=O)c2cc(S(=O)(=O)N3CC(C)CC(C)C3)ccc21 (centres undefined) |  | inactive: -2.91%
CSCC[C@H](NC(=O)c1ccco1)c1nnc2ccccn12 | inconclusive [activator, single point] | 
CCn1c(Cc2cccc3ccccc23)nnc1SCC(=O)Nc1nccs1 |  | inactive: -21%
O=C(/C=C/c1cccs1)NC1CCCC1 | inconclusive [activator, partial curve, poor fit] | 
Cc1ccc2cc3cc(C(=O)N4CCCCCC4)oc3nc2c1 | inconclusive [activator, partial curve, poor fit] | 

Compound | Potency | activity change, positive = activation
C/C(=N\Nc1ccc(Cl)c(C(=O)O)c1)c1ccc(N2CCOCC2)cc1 | inconclusive [activator, partial curve, poor fit] | 
CSc1nc2ccc3nc(NC(=O)c4ccccc4)sc3c2s1 | inconclusive [activator, partial curve, poor fit] | 
CC(C)OC(=O)CC(=O)CSc1nc2c(cc1C#N)CCCCC2 | inconclusive [activator, full curve, poor fit] | 
CSc1ncc(Cl)c(C(=O)Nc2cccc(Cl)c2)n1 | inconclusive [activator, single point] | 
O=C1C2C3C=CC(CC3)C2C(=O)N1c1cccc(C(F)(F)F)c1 (centres undefined) | inconclusive [activator, single point] | 
CC(=O)c1cccc(NC(=S)NC(=O)c2ccccc2)c1 | inconclusive [activator, partial curve, poor fit] | 
CCc1ccc(N2Cc3ccccc3C2)cc1 | inconclusive [activator, full curve, poor fit] | 
CCCC(=O)Nc1ccc2oc(-c3ccc(OC)c(Br)c3)nc2c1 |  | inactive: 15.6%
Cc1ccc(CNC(=O)C2CCCN(S(=O)(=O)c3cccc4nonc34)C2)cc1 (centres undefined) |  | inactive: 0.779%
CC(=O)c1ccc(NC(=O)c2sc3nc(C)c(C)c(C)c3c2N)cc1 | inconclusive [activator, partial curve, poor fit] | 
COc1ccc(/C=C/C(=O)NC(C)CCc2ccccc2)cc1OC (centres undefined) |  | inactive: -5.89%
CC1CCN(C(=O)CSc2nc3ccccc3[nH]2)CC1 | inconclusive [activator, partial curve, poor fit] | 
Cn1nc(-c2ccccc2)nc1-c1ccccc1 | inconclusive [activator, full curve, poor fit] | 
COc1ccc(C(=O)O/N=C(\N)c2ccc(Br)cc2)cc1 | inconclusive [activator, single point] | 
COc1cccc2c(SCC(=O)N/N=C/c3ccc(O)cc3O)cc(C)nc12 |  | inactive: 4.11%
C(#Cc1ccccc1)Cn1nnc2ccccc21 | inconclusive [activator, single point] | 
CCOCCn1c(CN2CCC(C)CC2)nc2c1c(=O)n(C)c(=O)n2C | inconclusive [activator, single point] | 
CC1CCC/C(=C\Nc2ccc3c(c2)OCO3)C1=O (centres undefined) | inconclusive [activator, full curve, poor fit] | 
CCN(C[C@H]1N[C@@](CC)(C(=O)OC)[C@H]2C(=O)N(Cc3ccccc3)C(=O)[C@@H]12)S(=O)(=O)c1ccccc1 |  | inactive: -3.58%
Cc1ccc(CNC(=O)c2ccc(C#CC(C)(C)O)s2)cc1 | inconclusive [activator, single point] | 
CCc1nnc(NC(=O)CSc2ccc(-c3nc4ccccc4[nH]3)cn2)s1 |  | inactive: 5.69%
O=C1NC(=Nc2ccccc2)S/C1=C\c1cccs1 |  | inactive: 19.2%
COc1cc2c(cc1NC(=O)COC(=O)C(CCSC)NC(=O)c1ccccc1Cl)oc1ccccc12 (centres undefined) | inconclusive [activator, partial curve, poor fit] | 
